# Measurements published in PubChem BioAssay AID504333 (National Center for Advancing Translational Sciences (NCATS), 2011).
# Hit rate of the full screen: of about 360,000 compounds, about 16,000 (4.4%) were called active. The inconclusive results got no clear call from the source; some entries with a clear call stand among them for comparison. The call rests on the fitted dose curve; in most records, active means well fitted inhibition curve with a large enough effect; inconclusive means small, poorly fitted or top-dose-only effect; inactive means no such curve, though single readings can be large or run the other way. A potency beside an inconclusive call is a rough fit, not a confirmed value.
# Target: Bromodomain adjacent to zinc finger domain protein 2B (Homo sapiens) (UniProt Q9UIF8)
# Test: qHTS Assay for Inhibitors of BAZ2B; further: nearly all actives have a fitted effect of over 60% in size
# Conditions: AlphaScreen BAZ2B-H3K14Ac peptide displacement; activity change, negative = inhibition: at 114 µM (top of the series) unless noted
# Method in brief: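 BAZ2B (50 nM) with biotin-H3(5-23)K14Ac peptide (50 nM) in PBS pH 7.4, 0.01% Tween-20, preformed 30 min, then compound 30 min at room temperature; top concentration 110uM. AlphaScreen streptavidin donor/nickel chelate acceptor beads (10 ug/mL final), 20 min dark, signal read.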
# On the % scale 0 is the no-effect control and ±100 the full control effect; potency means the concentration at half of the fitted maximal effect; tags describe the fitted curve by direction and shape.
# Sequence of UniProt Q9UIF8 (Q9UIF8 whole entry, looked up, the tested form may be a part): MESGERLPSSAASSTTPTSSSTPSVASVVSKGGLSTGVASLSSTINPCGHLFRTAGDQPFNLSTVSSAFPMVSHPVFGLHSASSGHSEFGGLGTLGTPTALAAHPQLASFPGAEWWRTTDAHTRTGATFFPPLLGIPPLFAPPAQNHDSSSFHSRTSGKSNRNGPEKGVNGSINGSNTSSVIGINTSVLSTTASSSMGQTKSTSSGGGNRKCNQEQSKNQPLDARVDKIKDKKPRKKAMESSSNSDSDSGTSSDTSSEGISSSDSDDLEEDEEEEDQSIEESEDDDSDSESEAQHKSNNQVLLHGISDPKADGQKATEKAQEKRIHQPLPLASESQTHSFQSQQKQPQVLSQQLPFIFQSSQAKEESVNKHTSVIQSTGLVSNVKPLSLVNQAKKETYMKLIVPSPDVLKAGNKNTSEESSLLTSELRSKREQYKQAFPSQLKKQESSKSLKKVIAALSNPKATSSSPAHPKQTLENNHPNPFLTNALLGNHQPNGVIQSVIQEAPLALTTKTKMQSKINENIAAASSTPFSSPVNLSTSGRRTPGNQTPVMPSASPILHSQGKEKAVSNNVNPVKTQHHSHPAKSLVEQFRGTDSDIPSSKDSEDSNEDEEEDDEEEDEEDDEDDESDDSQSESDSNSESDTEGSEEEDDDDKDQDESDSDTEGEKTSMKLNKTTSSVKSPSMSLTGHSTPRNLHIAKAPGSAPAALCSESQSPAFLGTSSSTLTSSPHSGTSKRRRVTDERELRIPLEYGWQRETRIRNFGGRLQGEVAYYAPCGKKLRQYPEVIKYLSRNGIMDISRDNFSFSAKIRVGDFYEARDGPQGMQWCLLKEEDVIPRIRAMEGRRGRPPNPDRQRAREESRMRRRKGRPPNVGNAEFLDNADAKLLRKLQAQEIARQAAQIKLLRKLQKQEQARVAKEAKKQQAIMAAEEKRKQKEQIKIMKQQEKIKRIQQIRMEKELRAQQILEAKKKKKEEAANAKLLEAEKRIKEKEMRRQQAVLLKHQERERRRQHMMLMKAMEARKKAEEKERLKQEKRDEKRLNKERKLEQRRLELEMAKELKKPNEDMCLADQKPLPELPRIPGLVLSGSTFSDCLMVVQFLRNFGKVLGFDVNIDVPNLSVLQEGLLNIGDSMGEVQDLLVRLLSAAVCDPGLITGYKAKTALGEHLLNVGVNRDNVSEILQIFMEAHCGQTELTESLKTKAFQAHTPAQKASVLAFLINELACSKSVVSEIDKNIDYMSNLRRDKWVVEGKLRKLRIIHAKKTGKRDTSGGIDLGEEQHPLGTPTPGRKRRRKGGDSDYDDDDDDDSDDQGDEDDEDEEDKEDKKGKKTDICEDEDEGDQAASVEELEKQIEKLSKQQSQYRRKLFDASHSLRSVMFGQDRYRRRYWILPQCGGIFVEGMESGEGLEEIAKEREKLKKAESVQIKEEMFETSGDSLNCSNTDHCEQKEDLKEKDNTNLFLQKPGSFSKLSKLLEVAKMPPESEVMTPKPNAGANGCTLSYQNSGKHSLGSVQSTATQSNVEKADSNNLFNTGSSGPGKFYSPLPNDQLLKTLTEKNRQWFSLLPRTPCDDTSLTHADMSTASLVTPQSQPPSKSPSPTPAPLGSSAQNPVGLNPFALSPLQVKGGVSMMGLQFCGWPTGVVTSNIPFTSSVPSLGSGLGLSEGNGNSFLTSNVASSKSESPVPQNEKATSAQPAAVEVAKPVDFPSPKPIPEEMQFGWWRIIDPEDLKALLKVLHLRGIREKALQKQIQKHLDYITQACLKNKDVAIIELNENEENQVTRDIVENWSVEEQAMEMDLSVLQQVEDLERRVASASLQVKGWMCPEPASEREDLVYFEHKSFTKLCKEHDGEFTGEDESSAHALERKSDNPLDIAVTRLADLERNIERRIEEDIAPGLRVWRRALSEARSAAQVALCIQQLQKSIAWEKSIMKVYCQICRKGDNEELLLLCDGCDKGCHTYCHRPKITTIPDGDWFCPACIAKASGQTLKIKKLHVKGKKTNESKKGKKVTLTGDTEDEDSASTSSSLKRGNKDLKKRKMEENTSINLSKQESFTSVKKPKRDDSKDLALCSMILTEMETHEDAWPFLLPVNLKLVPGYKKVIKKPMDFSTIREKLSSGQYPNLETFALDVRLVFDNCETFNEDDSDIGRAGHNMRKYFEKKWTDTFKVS
SMILES,Potency,"activity change, negative = inhibition"
O=C(O)CCOc1ccc2c(c1)OCCO2,"inconclusive: 7.08 µM [inhibitor, single point]",–
O=C(/C=C/c1ccc(Cl)cc1Cl)N1CCN(c2ccc([N+](=O)[O-])c(N3CCOCC3)c2)CC1,"inconclusive: 4.47 µM [inhibitor, full curve, poor fit]",–
CCC(C)N(C(=O)COC(=O)CCc1c[nH]c2ccccc12)C1CCS(=O)(=O)C1 (stereo not drawn),"inconclusive: 79.4 µM [inhibitor, single point]",–
COc1cccc(/C=N/Nc2cc(-n3nc(C)cc3-c3ccccc3)ncn2)c1O,–,inactive: -5.86%
O=C(/C=C/c1ccccc1)OCCCCN=C1NS(=O)(=O)c2ccccc21,–,inactive: 2.76%
CC(C)Oc1ccc(/C=C(\NC(=O)/C=C/c2ccco2)C(=O)NCCc2nc3ccccc3[nH]2)cc1,"inconclusive: 44.7 µM [inhibitor, partial curve]",–
O=c1[nH]cc(-c2ccc(Br)cc2)n1Cc1ccccc1,"inconclusive: 31.6 µM [inhibitor, partial curve]",–
Cc1cc2oc(=O)cc(-c3cc4ccccc4o3)c2cc1O,"inconclusive: 79.4 µM [inhibitor, partial curve]",–
CC1(C)Cc2c(c(-c3ccco3)nc3sc4c(NCCN5CCOCC5)ncnc4c23)CO1,–,inactive: -1.66%
CCc1nc(SCc2ccc(OCC(C)C)cc2)n[nH]1,"inconclusive: 89.1 µM [inhibitor, single point]",–
CC(C)C(=O)Nc1ccc(NC(=O)c2ccco2)cn1,"inconclusive: 89.1 µM [inhibitor, single point]",–
Cc1nc(Nc2ccc(C(=O)O)cc2)sc1-c1ccccc1,–,inactive: -34.3%
COc1ccc(NC(=O)c2ccc3ccccc3n2)cc1S(=O)(=O)N1CCCCC1,"inconclusive: 79.4 µM [inhibitor, single point]",–
COc1ccc(Nc2nc(NCCN3CCOCC3)nc(Nc3ccc(OC)cc3)n2)cc1,active: 44.7 µM,–
CC(C)(C)c1ccc(/C([O-])=C(/C(=S)NCc2ccco2)[n+]2ccccc2)cc1,–,inactive: 12.1%
CCOC(=O)c1ccc(NC(=O)CSc2nccn2-c2ccc(OCC)cc2)cc1,"inconclusive: 22.4 µM [inhibitor, full curve]",–
OCCC1CN(Cc2ccncc2)CCN1C1CCCC1 (stereo not drawn),–,inactive: -1.4%
CCn1c(O)c(/C=C/C=C/C=Nc2ccccc2)sc1=S,"inconclusive: 10 µM [inhibitor, partial curve]",–
c1ccc2c(c1)ncn2CCOCCOCCn1cnc2ccccc21,active: 70.8 µM,–
Cc1cccc(-c2nc(CSCC(=O)N3CCN(c4ccccc4)CC3)c(C)o2)c1,"inconclusive: 35.5 µM [inhibitor, partial curve]",–
Cc1ccc(NC(=O)Nc2cccn(Cc3c(F)cccc3Cl)c2=O)cc1,"inconclusive: 79.4 µM [inhibitor, single point]",–
NC(=O)c1ccc(N2CCCCCC2)c([N+](=O)[O-])c1,"inconclusive: 89.1 µM [inhibitor, single point]",–
COc1cc(OC)c(NC(=O)N2CCc3c(sc4c3CCCC4)C2c2ccccc2)cc1Cl (stereo not drawn),–,inactive: -35.5%
O=C(NCc1cccnc1)/C(=C\c1ccc(-c2ccc(Cl)c(Cl)c2)o1)S(=O)(=O)c1ccccc1,"inconclusive: 35.5 µM [inhibitor, partial curve]",–
O=C(Nc1nnc(S(=O)(=O)N2CCCCCC2)s1)c1ccccc1Cl,"inconclusive: 12.6 µM [inhibitor, full curve]",–

SMILES,Potency,"activity change, negative = inhibition"
O=C(CCN1C(=O)/C(=C/c2ccco2)SC1=S)Nc1ccc(O)cc1C(=O)O,active: 50.1 µM,–
COCC(=O)Oc1c(S(=O)(=O)c2ccc(C)cc2)c(C)nn1-c1ccccc1,"inconclusive: 100 µM [inhibitor, single point]",–
CCOC(=O)CCNC(C(=O)OCC)c1ccccc1 (stereo not drawn),"inconclusive: 89.1 µM [inhibitor, single point]",–
COc1ccc(NC(=O)NCCCN2CCCC2=O)cc1,–,inactive: -2.38%
Cc1ccc(CNC(=O)CCCN2C(=O)c3cccnc3Oc3ccc(Cl)cc32)cc1,–,inactive: -4.41%
Cc1ccc(S(=O)(=O)n2nc(OC(=O)c3ccccc3C)cc2N)cc1,"inconclusive: 89.1 µM [inhibitor, single point]",–
COc1cc2c(-c3ccc(O)cc3)nc3c(c(C)nn3-c3ccccc3)c2cc1OC,"inconclusive: 89.1 µM [inhibitor, single point]",–
COC(=O)C1(Cc2ccc(O)cc2)OC(=O)C(O)=C1c1ccc(O)cc1 (stereo not drawn),active: 79.4 µM,–
Cc1ccc2[nH]c3c(=O)n(Cc4ccncc4)cnc3c2c1,active: 50.1 µM,–
CCn1ccc2cc(S(=O)(=O)N3CCCN(C(=O)Nc4ccc(C)c(F)c4)CC3)ccc21,–,inactive: -16.3%
CCN(CC)CCN(Cc1cc2cc(C)ccc2[nH]c1=O)C(=S)Nc1ccccc1,"inconclusive: 79.4 µM [inhibitor, single point]",–
CC1=CN2C(=N)/C(=C/c3ccc(Sc4ccc(C)cc4)o3)C(=O)N=C2S1,active: 22.4 µM,–
Cc1ccc(C(=O)C2CCN(CC(=O)Nc3nc(C)cs3)CC2)cc1,"inconclusive: 79.4 µM [inhibitor, single point]",–
Cc1ccc(N(Cc2ccccc2)C(=O)c2ccc(Cl)c(S(=O)(=O)N3CCOCC3)c2)cc1,–,inactive: -5.56%
CC(C)=CCc1c(O)c(CC=C(C)C)c2c(c1O)C(=O)CC(c1ccc(O)cc1)O2 (stereo not drawn),"inconclusive: 79.4 µM [inhibitor, single point]",–
Cc1cc(=O)n(Cc2ccccc2)c2ccccc12,"inconclusive: 89.1 µM [inhibitor, single point]",–
CC12CCC(C/C1=N/OC(=O)c1cccc([N+](=O)[O-])c1)C2(C)C (stereo not drawn),"inconclusive: 28.2 µM [inhibitor, partial curve]",–
CCc1ccc(NC(=O)Cn2ncc3c(C)n(Cc4cccc(Cl)c4)c(C)c3c2=O)cc1,active: 79.4 µM,–
COc1cc(C(=S)N(C)C)ccc1O,–,inactive: -1.88%
C/C(CC(=O)Nc1cc(C)ccn1)=N\NC(=O)c1cccc(C)c1,active: 89.1 µM,–
CCN(C(=O)COC(=O)c1cc(C)n(-c2ccc(F)cc2)c1C)C1CCS(=O)(=O)C1 (stereo not drawn),"inconclusive: 56.2 µM [inhibitor, partial curve]",–
CC(C)(C)C1CCc2c(sc(NC(=O)CCC(=O)O)c2C(=O)Nc2ccccc2C(F)(F)F)C1 (stereo not drawn),active: 50.1 µM,–
C/C(=N\Nc1ccc(C(F)(F)F)cc1[N+](=O)[O-])C(C)C,active: 10 µM,–
CCOc1cc(N2CCOCC2)c(OCC)cc1NC(=O)Cc1ccc(OC)c(OC)c1,"inconclusive: 39.8 µM [inhibitor, partial curve]",–
COc1cccc(-c2nc(SCC(=O)NCC3CCCO3)c(-c3ccc(F)cc3)[nH]2)c1 (stereo not drawn),"inconclusive: 89.1 µM [inhibitor, single point]",–

SMILES,Potency,"activity change, negative = inhibition"
COc1cccc(CNCCc2c[nH]c3ccccc23)c1OCc1ccccc1,"inconclusive: 70.8 µM [inhibitor, single point]",–
COc1ccc(C(=O)/C=C/Nc2ccc(S(=O)(=O)Nc3onc(C)c3C)cc2)cc1,"inconclusive: 89.1 µM [inhibitor, single point]",–
O=C(COC(=O)CC1SC(N2CCCC2)=NC1=O)Nc1ccc(Br)cc1 (stereo not drawn),–,inactive: -12.9%
COc1ccc(CCNC(=O)C2CCN(c3ncnc4c3nc3n4CCCCC3)CC2)c(OC)c1,–,inactive: 5.6%
CCOc1ccc(S(=O)(=O)c2c[nH]c3ccccc3c2=O)cc1,inactive,–
COC(=O)C(Cc1c[nH]c2ccccc12)NC(=O)c1ccc2nc[nH]c2c1 (stereo not drawn),–,inactive: -7.26%
COc1cc(C(c2oc(CO)cc(=O)c2O)c2oc(CO)cc(=O)c2O)cc(OC)c1OC,active: 50.1 µM,–
CCOc1ccc(CCNC(=O)CCn2cccc2)cc1OCC,"inconclusive: 89.1 µM [inhibitor, single point]",–
CC1(OC(=O)CCc2ccccc2)C(=O)C=C2C=C(c3ccc(C#N)cc3)N(CCc3ccccn3)C=C2C1=O (stereo not drawn),"inconclusive: 56.2 µM [inhibitor, partial curve]",–
O=[N+]([O-])c1cccc2c3c([nH]c12)CCCC3,"inconclusive: 10 µM [inhibitor, full curve, poor fit]",–
Cc1nc(C(F)(F)F)c(C(=O)N/N=C(\N)c2cccnc2)s1,active: 79.4 µM,–
O=C(Cc1ccc(F)cc1)NCc1nc2cccnc2n1Cc1ccc(F)cc1,–,inactive: 3.94%
Cc1noc(C)c1C(=O)Nc1sc2c(c1C(N)=O)CCCCC2,"inconclusive: 79.4 µM [inhibitor, single point]",–
CCN(CC(=O)Nc1ccc(NC(C)=O)cc1)C(=O)CCCOc1ccc(C(C)(C)C)cc1,–,inactive: -5.11%
Fc1ccc(NC(=S)Nc2ccc(Cl)cc2)cc1,–,inactive: 2.1%
Cc1ccc(C)c(OCC(=O)NCCN(C)C)c1,–,inactive: 13%
O=C(O)C/C(=C\c1cccc(NC(=O)c2ccccc2Cl)c1)c1nc2ccccc2s1,active: 79.4 µM,–
COc1ccc(NC(=O)CSc2nc(O)c(C/C=C/c3ccccc3)c(=O)[nH]2)cc1,–,inactive: -16.3%
CN(C)S(=O)(=O)c1cccc(-c2nn(-c3ccccc3)cc2/C=C(\C#N)c2nc3ccccc3[nH]2)c1,–,inactive: 3.03%
c1cnc(N2CCN(Cc3c[nH]c4ccccc34)CC2)nc1,–,inactive: -7.65%
COc1ccc(CN2CCN(Cc3ccccc3F)CC2)c(OC)c1,active: 20 µM,–
Cc1cccc(N2CCN(S(=O)(=O)c3ccc4c(c3)CC(C)N4C(=O)C3CC3)CC2)c1C (stereo not drawn),"inconclusive: 70.8 µM [inhibitor, single point]",–
Cc1cccc(C(=O)Nc2onc(C)c2C#N)c1,"inconclusive: 100 µM [inhibitor, single point]",–
